About 1,200 (2.5%) of roughly 48,000 compounds were called active. Another 2% or so got no clear call; they are omitted.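 How the source made its calls: active means activation of at least 60% and not above a set upper limit (about 1 call in 100 departs from these limits); inconclusive means activation of 40% to 60%, or above that upper limit; inactive means activation under 40%.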 The list shows a part of the results.
target: Probable G-protein coupled receptor 32 (Homo sapiens) (UniProt O75388); assay: qHTS for Agonists of Human Resolvin D1 Receptor DRV1; settings: CHO-K1 GPR32 beta-arrestin PathHunter luminescence, 90 min; at 76.9 µM; hits give high values; zero percent set by DMSO-only wells; further: 0% is about no effect
Sequence of UniProt O75388 (O75388 whole entry, looked up): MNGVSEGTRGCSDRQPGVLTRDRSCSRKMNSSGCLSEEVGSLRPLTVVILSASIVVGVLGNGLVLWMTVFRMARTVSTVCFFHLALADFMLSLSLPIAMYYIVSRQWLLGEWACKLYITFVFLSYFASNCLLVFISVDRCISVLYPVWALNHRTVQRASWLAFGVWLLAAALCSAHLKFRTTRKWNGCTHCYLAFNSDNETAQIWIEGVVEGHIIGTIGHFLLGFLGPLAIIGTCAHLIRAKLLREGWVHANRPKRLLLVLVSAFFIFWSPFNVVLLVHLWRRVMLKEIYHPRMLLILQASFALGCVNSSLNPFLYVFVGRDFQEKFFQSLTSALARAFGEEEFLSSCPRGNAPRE
Procedure, shortened: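 PathHunter beta-arrestin recruitment in CHO-K1 cells stably expressing ProLink-tagged GPR32. Cells were exposed to compound for 90 min at 37 C, then chemiluminescence was read after 1 h detection at ambient temperature; DMSO served as basal control.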

activation, inactive:
CCOc1ccc(C2C(=O)N(C3CCCCCC3)CC(=O)N2Cc2ccc(C)cc2)cc1OC (configuration not stated) -42.4%
COc1ccc(CCNC(=O)c2cc3c(=O)n4cccc(C)c4nc3n2C)cc1 -14.9%
Cc1ccc(-c2csc(-c3c(N)c(C(=O)c4ccc5c(c4)OCO5)n4ccccc34)n2)cc1C 1.06%
Cc1cccc(N(CC(=O)NCCc2ccccc2)S(=O)(=O)c2ccccc2)c1C 1.24%
COc1ccc(C(=O)c2ccccc2)c(O)c1 0.233%
COc1ccc2c(C)c(CCC(=O)NCc3cccc(Cl)c3)c(=O)oc2c1 0.14%
Cc1cccc(CSCCNC(=O)C2CCN(S(=O)(=O)Cc3ccccc3)CC2)c1 -0.039%
CCC(CC)C(=O)Nc1nnc(S(=O)(=O)N(C)c2cc(C)cc(C)c2)s1 -2.94%
COc1c(N2C[C@@H]3CCCN[C@@H]3C2)c(F)cc2c(=O)c(C(=O)O)cn(C3CC3)c12 -34.3%
COc1ccc(NC(=O)CC2Oc3ccc(C)cc3NC2=O)cc1Cl (configuration not stated) 2.78%
Cc1cc(C)cc(-n2ccn(CC(=O)NCCc3ccccc3)c(=O)c2=O)c1 -10.3%
COc1cc2c(cc1OC)C(COc1ccc3c(C)cc(=O)oc3c1)N(C(=O)Cc1ccc(F)cc1)CC2 (configuration not stated) -1.76%
CCOc1ccc(N(CC(=O)NCc2ccc(OC)cc2)S(=O)(=O)c2c(C)[nH]c(=O)[nH]c2=O)cc1 -8.99%
CCOC(=O)c1c(NC(C)=O)c2c3c(sc2n1Cc1c(C)cc(C)cc1C)CCCC3 -27.2%
COc1ccc(Cn2ccnc2SCC(=O)Nc2ccc3c(c2)OCCO3)cc1 -12.4%
Cc1ccc2c(c1)N(CC(=O)Nc1ccccc1C(F)(F)F)C(=O)c1cccnc1O2 -24.2%
COc1cccc(C(=O)N(Cc2cccc(F)c2)C2CCS(=O)(=O)C2)c1 (configuration not stated) -4.7%
Cc1c(Cl)cccc1NC(=O)c1oc2ccc(S(=O)(=O)N3CCCCCC3)cc2c1C -4.94%
COc1cccc(OC)c1C(=O)Nc1ccc(-c2nc3ncccc3o2)cc1 10.2%
O=C(Nc1cccc(F)c1)c1ccc2oc(=O)n(Cc3ccccc3)c2c1 18.7%
CCOC(=O)c1cc2c(=O)n3ccccc3nc2n(Cc2ccco2)c1=NC(=O)c1ccc(C(C)(C)C)cc1 -15%
COc1ccc(CCCc2nnc(SCC(=O)Nc3cc(F)ccc3C)o2)cc1 37.2%
COc1ccc(Cn2c(C(=O)O)c(CNCc3ccc(OC)cc3OC)c3ccc(C)cc32)cc1 4.42%
COc1ccc(NC(=O)CSCc2cc(=O)c3cc(C)ccc3[nH]2)cc1 4.06%
Fc1ccc(CNCCCSc2nnnn2-c2ccccc2)cc1 -24.4%
COc1ncnc(NS(=O)(=O)c2ccc(N)cc2)c1OC -7.79%
CC(=O)OCC(=O)[C@@]1(O)[C@H](C)C[C@H]2[C@@H]3CCC4=CC(=O)C=C[C@]4(C)[C@@]3(F)[C@@H](O)C[C@@]21C 3.52%
CN(C(=O)CSc1nc2ccc(NC(=O)c3cccc(F)c3)cc2s1)c1ccccc1 20.2%
CCOc1ccc(CNC(=O)c2ccc3c(Cl)c4c(nc3c2)CCCC4)cc1 -1.01%
COc1cc(Cl)c(C)cc1NC(=O)CC1Oc2ccccc2NC1=O (configuration not stated) -0.993%
O=C(Oc1ccccc1)c1ccccc1O 2.59%
CCC(C(=O)O)c1ccc(N2Cc3ccccc3C2=O)cc1 (configuration not stated) 16%
CCNC(=O)CCCN1C(=O)CCn2nc(-c3cccn3C)cc21 -12.8%
COc1ccc(NC(=O)c2c(NCc3ccc(C)o3)sc3c2CCCCC3)c(OC)c1 -11.9%
COc1ccc(C(=O)Nc2ccc(-c3nc4ncccc4o3)cc2C)cc1Br 11%
CCn1c(=O)c2cc(C(=O)Nc3cccc(C(F)(F)F)c3)sc2c2ccccc21 -8.16%
CCC(Sc1nc2nccnc2c(=O)n1Cc1ccccc1Cl)C(=O)NC1CCCCC1 (configuration not stated) -50.5%
O=S(=O)(c1ccc(C2CCCCC2)cc1)N1CCN(c2cc(Cl)ccc2Cl)CC1 -7.47%
COc1ccc(-n2c(/C=C/c3cccc4ccccc34)nc3ccccc3c2=O)cc1OC -11.1%
Cc1ccc2nc(NCc3ccccc3)c3nncn3c2c1 -2.97%
CCn1cc(C(=O)NCCc2ccc(Cl)cc2)c(=O)c2cc(S(=O)(=O)N(C)C3CCCCC3)ccc21 -0.295%
Cc1ccc(CNC(=O)CSCc2ccccc2C)cc1 -14.4%
COc1ccc(CCNC(=O)c2ccc3c(c2)CCN3S(=O)(=O)c2ccccc2)cc1 -8.59%
CCOc1cc(CNC(=O)c2cc(-c3ccccc3)n[nH]2)cc(OCC)c1OCC -13.1%
COc1ccc(-c2noc(N3CCC(C(=O)Nc4cccc(C)c4C)CC3)n2)cc1 -13.8%
CCc1ccc(NC(=O)CSc2nc3nc(C)cc(C)n3n2)cc1 38.2%
CCOc1cc(C(c2c(C)[nH]n(-c3ccccc3)c2=O)c2c(C)[nH]n(-c3ccccc3)c2=O)ccc1O 9.61%
O=C(CN1C(=O)C2(SCC(=O)N2c2ccc(F)c(F)c2)c2ccccc21)NCCc1ccccc1 (configuration not stated) -11.3%
COc1ccc(N2CCN(C(=O)c3cc4c(=O)n(Cc5cccnc5)ccc4nc3C)CC2)cc1 -11.7%
COc1ccc(CCNC(=O)c2cnn(-c3ccc(F)cc3)c2C2CCN(C(=O)OC(C)(C)C)CC2)cc1OC -13.2%
COc1ccc(NC(=O)c2oc3ccc(S(=O)(=O)N4CCOCC4)cc3c2C)c(OC)c1 -9.81%
CC(Oc1ccccc1)C(=O)Nc1ccc(C(=O)OCc2cc(=O)n3nc(C(C)C)sc3n2)cc1 (configuration not stated) -7.31%
Cc1[nH]c2ccc(C(=O)N3CCN(c4ccccc4F)CC3)cc2c1C -0.393%
CCN(CC)S(=O)(=O)c1ccc(NC(=O)Cn2ncc3c([nH]c4ccccc43)c2=O)cc1 -14.3%
CCOc1ccc(/C=C/c2nc(C#N)c(N3CCN(CC)CC3)o2)cc1 -7.23%
O=C(NCCc1ccc(F)cc1)C(=O)NCC(c1ccco1)S(=O)(=O)c1ccccc1 (configuration not stated) 12.8%
Cc1cc(C)cc(OCC(=O)Nc2nc(-c3ccc(F)cc3)ns2)c1 4.54%
Cc1ccccc1NC(=O)CSc1c(C(C)C)cnc2c1c(=O)n(C)c(=O)n2C -6.33%
Cc1cc(F)ccc1NC(=O)c1csc2c1CCC(C)C2 (configuration not stated) -5.72%
COC(=O)c1cc(NS(=O)(=O)c2ccc3c(c2)OCCO3)ccc1Cl 18.4%
CCOc1ccccc1NC(=O)CSc1nc2ccccc2nc1N1CCOCC1 -33.6%
O=C(Cn1c(=O)n(-c2ccccc2)c(=O)c2c3c(sc21)CCC3)c1ccc(F)cc1 -10.5%
Cc1c(Cl)cccc1-n1ncc(C(=O)NCCN2CCN(C)CC2)c1C1CCN(C(=O)OC(C)(C)C)CC1 -6.68%
CC(=O)O[C@H]1C(=O)[C@@]2(C)C([C@H](OC(=O)c3ccccc3)[C@]3(O)C[C@H](OC(=O)[C@H](O)[C@@H](NC(=O)c4ccccc4)c4ccccc4)C(C)=C1C3(C)C)[C@]1(OC(C)=O)CO[C@@H]1C[C@@H]2O (some centres not stated) -6.49%
O=C(NCc1ccccc1)c1ccc2c(c1)N(Cc1ccccc1F)C(=O)c1ccccc1S2=O (configuration not stated) -25.6%
COc1ccc(C(=O)CC(=O)c2ccc(C(C)(C)C)cc2)cc1 -12.2%
Cc1ccc(C2CC(=O)n3nc(-c4ccc(Cl)cc4)nc3S2)cc1 (configuration not stated) -2.66%
COc1cccc(CN(C(=O)COc2ccc(Cl)c(C)c2)C2CCS(=O)(=O)C2)c1 (configuration not stated) -10.9%
O=C(Nc1ccc(Cl)cc1)c1cnn2c1NC(c1ccccc1)=CC2c1ccccc1 (configuration not stated) -17.3%
CCc1ccc(NC(=O)CSc2nc3c([nH]c4ccccc43)c(=O)n2-c2ccc(C)cc2)cc1 -8.67%
Cc1ccc(CNC(=O)CCS(=O)(=O)c2cc3c4c(c2)CCN4C(=O)CC3)cc1 1.99%
Cc1ccc(NC(=O)c2ccc(NC(=O)N3CCSc4ncccc43)cc2)c(Cl)c1 1.1%
CCN(CC)c1cc(C)c2cc(NC(=O)c3ccc(OC)c(OC)c3)ccc2n1 36.2%
O=C(Nc1ccccc1)c1cnc(N2CCCCC2)c2ccccc12 -1.16%
COc1ccc(-c2cc(C)no2)cc1S(=O)(=O)N1CCN(c2cccc(C)c2)C(C)C1 (configuration not stated) -6.33%
Cc1ccccc1NC(=O)NCCc1c[nH]c2ccccc12 25%
COc1cccc(N2CCN(C(=O)c3cnc4c(-c5ccccc5)c(C)nn4c3C)CC2)c1 -27.3%
COc1ccccc1C(=O)Nc1c(C(=O)Nc2cc(Cl)ccc2C)sc2nc(C)cc(C)c12 -4.59%
COc1cccc(CN2C(=O)c3ccccc3Sc3ccc(C(=O)NCc4ccccc4)cc32)c1 -19.9%
COc1cccc2cc(C(=O)N3CCN(c4cc(C)ccc4C)CC3)c(=O)oc12 7.84%
Fc1ccccc1Nc1c2c(nc3ccccc13)CCC2 48.5%
Cc1nc(SCC(=O)N2CCN(c3ccccc3)CC2)[nH]c(=O)c1C -0.939%

Reference: PubChem BioAssay AID1346428 (National Center for Advancing Translational Sciences (NCATS), 2018)
